{
  "source": "PubChem BioAssay (NCATS)",
  "note": "This list was built around the results that the source calls inconclusive (neither active nor inactive); the mix of calls is not that of the screen. Where the call is inconclusive, the potency comes from a doubtful curve fit. Calls of active or inactive are those of the source. The call rests on the fitted dose curve; in most records, active means well fitted cell-killing curve with a large enough effect; inconclusive means small, poorly fitted or top-dose-only effect, or effect the other way; inactive means no such curve, though single readings can be large or run the other way. Potency means the concentration at half of the fitted maximal effect; tags describe the fitted curve by direction and shape.",
  "data": [
    {"test": "Viability qHTS for spleen associated tyrosine kinase inhibitor (SYKi) naive MV4-11 cells (AID 1963823); further: nearly all actives have a fitted effect of over 40% in size", "details": "MV4-11 AML viability, CellTiter-Glo luminescence, 72 h; viability (% of control): at 45 µM (top of the series)", "procedure,_shortened": "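Viability of MV4-11 AML cells lacking prior SYK inhibitor exposure is scored by CellTiter-Glo luminescence following 72 hr compound incubation at 37 C, 5% CO2, seeded at 500 cells per well.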", "values": [
      {"smiles": "CCC/C=C/C=C/C1CC(O)C2(O)C(=O)OCC12", "note": "(centres undefined)", "Potency": "inconclusive: 32.6 µM [cytotoxic, partial curve, poor fit]"},
      {"smiles": "OC(C#CCN1CCCC1)(c1ccccc1)c1ccccc1", "Potency": "inconclusive: 33.5 µM [cytotoxic, single point]"},
      {"smiles": "C/C=C(\\C)C(=O)OCC1OC(OC2OC(COC(=O)/C(C)=C/C)C(OC3OC(CO)C(OC(=O)/C(C)=C/C)C(OC(=O)/C(C)=C/C)C3O)C(O)C2O)C(O)C(O)C1OC1OC(CO)C(OC(=O)/C(C)=C/C)C(OC(=O)/C(C)=C/C)C1O", "note": "(centres undefined)", "viability (% of control)": "inactive: 65% [at 9.25 µM]"},
      {"smiles": "CC(CCC1(O)OC2CC3C4CC=C5CC(O[C@@H]6O[C@H](CO)[C@@H](O[C@@H]7O[C@H](CO)[C@@H](O)[C@H](O)[C@H]7O)[C@H](O)[C@H]6O[C@@H]6O[C@@H](C)[C@H](O)[C@@H](O)[C@H]6O)CCC5(C)C4CCC3(C)C2C1C)CO[C@@H]1O[C@H](CO)[C@@H](O)[C@H](O)[C@H]1O", "note": "(some centres undefined)", "Potency": "inconclusive: 6.93 µM [cytotoxic, single point]"},
      {"smiles": "COC(=O)c1ccc(O)cc1", "viability (% of control)": "inactive: 74.5%"},
      {"smiles": "CCC(C)C1NC(=O)C2CCCN2C(=O)C(CC(O)CO)OC(=O)CCNC(=O)C(C)N(C)C(=O)C(C(C)C)N(C)C1=O", "note": "(centres undefined)", "Potency": "inconclusive: 5.44 µM [cytotoxic, single point]"},
      {"smiles": "C=CC1C(OC2OC(CO)C(O)C(O)C2O)OC=C2C(=O)N3C(C(=O)O)Cc4c([nH]c5ccccc45)C3CC21", "note": "(centres undefined)", "viability (% of control)": "inactive: 71.7% [at 17.3 µM]"},
      {"smiles": "Cc1ccc(Sc2cncc3sc(C(N)=O)cc23)cc1", "Potency": "inconclusive: 2.91 µM [cytotoxic, partial curve, poor fit]"},
      {"smiles": "CC(=O)O[C@@H]1[C@H](O[C@@H]2O[C@H](CO)[C@@H](O)[C@H](O)[C@H]2O)[C@@H](O[C@@H]2O[C@@H](C)[C@H](O)[C@@H](O[C@@H]3O[C@H](CO)[C@@H](O)[C@H](O)[C@H]3O)[C@H]2O)[C@H](OC(=O)C23CCC4(C)C(=CCC5C6(C)CC(O)C(O[C@@H]7O[C@H](C(=O)O)[C@@H](O)[C@H](O)[C@H]7O)C(C)(C(=O)O)C6CCC54C)C2CC(C)(C)CC3O)O[C@@H]1C", "note": "(some centres undefined)", "viability (% of control)": "inactive: 92% [at 9.25 µM]"},
      {"smiles": "CC(C)C1(O)NC(=O)C(CC2(O)c3ccccc3N3C(=O)C(C)(C)NC32)n2c1nc1ccccc1c2=O", "note": "(centres undefined)", "viability (% of control)": "inactive: 50.3% [at 17.3 µM]"},
      {"smiles": "Cc1ccc(S(=O)(=O)NC(=O)NN2CCCCCC2)cc1", "viability (% of control)": "inactive: 74.3%"},
      {"smiles": "COc1c2c(c(C)c3c1C(=O)OC3)O[C@@]1(C)CC(O)C(C(C)(C)O)[C@](C)(CCC(=O)O)[C@H]1C2", "note": "(some centres undefined)", "Potency": "active: 7.96 µM"},
      {"smiles": "CC1(O)CCC2C(C(=O)O)=COC(OC3OC(CO)C(O)C(O)C3OC(=O)/C=C/c3ccc(O)cc3)C21", "note": "(centres undefined)", "viability (% of control)": "inactive: 86.1% [at 17.3 µM]"},
      {"smiles": "Cc1nc(Nc2cnn(C3CCNCC3)c2)nc2c1N(C)C(=O)c1cc3ccccc3cc1N2C", "Potency": "active: 3.66 µM"},
      {"smiles": "CC(c1ncncc1F)C(O)(Cn1cncn1)c1ccc(F)cc1F", "note": "(centres undefined)", "viability (% of control)": "inactive: 64.3%"},
      {"smiles": "CN1CCC[C@@H]1c1cccnc1", "viability (% of control)": "inactive: 64.5%"},
      {"smiles": "CCOc1ccc(-n2c([C@@H](C)N(Cc3cccnc3)C(=O)Cc3ccc(F)c(C(F)(F)F)c3)nc3ncccc3c2=O)cc1", "Potency": "inconclusive: 16.6 µM [cytotoxic, partial curve]"},
      {"smiles": "CN(CCCOc1ccc(Cc2ccccc2)cc1)CCC(=O)O", "viability (% of control)": "inactive: 59.7%"},
      {"smiles": "CC(=O)OC1CC(C(C)(C)O)OC2CCC3(C)OC4=C(C(=O)C=C5C(C)C(OC(C)=O)C6(C)C(C)OC546)C(O)C3C12C", "note": "(centres undefined)", "viability (% of control)": "inactive: 69% [at 17.3 µM]"},
      {"smiles": "CC(=O)O[C@@]12CO[C@@H]1C[C@H](O)[C@@]1(C)C(=O)[C@H](O)C3=C(C)[C@@H](OC(=O)[C@H](O)[C@@H](NC(=O)OC(C)(C)C)c4ccccc4)C[C@@](O)([C@@H](OC(=O)c4ccccc4)C12)C3(C)C", "note": "(some centres undefined)", "Potency": "inconclusive: 0.0025 µM [cytotoxic, full curve]"},
      {"smiles": "Cc1ccc(OC[C@H](O)[C@H](C)NC(C)C)c2c1CCC2", "viability (% of control)": "inactive: 63.1%"},
      {"smiles": "CC(C)(C)NC(=O)[C@@H](c1cccnc1)N(C(=O)c1ccco1)c1ccc(C(C)(C)C)cc1", "Potency": "inconclusive: 16.4 µM [cytotoxic, single point]"},
      {"smiles": "CCN(Cc1ccccc1)C(=O)Cn1c(=O)n(C)c2cnc(-c3ccccc3)nc21", "Potency": "inconclusive: 6.51 µM [cytotoxic, full curve]"},
      {"smiles": "C=C1CCC2C(C)(C)CCC[C@]2(C)[C@H]1C/C=C(\\CO)C(=O)C(=O)O", "note": "(some centres undefined)", "Potency": "inconclusive: 20.2 µM [cytotoxic, single point]"}
    ]}
  ]
}
